The source of these data is article PMC6919601, “Identification of Plasmodium dipeptidyl aminopeptidase allosteric inhibitors by high throughput screening” (PLoS ONE, 2019).

The campaign covered roughly 110,000 compounds. About 230 (0.21%) showed an effect of 50% or more. This is one part of the list.
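Further: 30 min substrate incubation versus DMSO and 10 µM JCP410 controls.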

In the assay the target is DPAP1 (Plasmodium falciparum, UniProt Q8IIJ9). The assay is described as follows: primary screen, percent inhibition; read by cleavage of a fluorogenic dipeptide substrate; higher = more effect of the substance. Also on record: species or system P. falciparum D10 trophozoite lysates; single well.
Chain of DPAP1 (Q8IIJ9 whole entry, looked up): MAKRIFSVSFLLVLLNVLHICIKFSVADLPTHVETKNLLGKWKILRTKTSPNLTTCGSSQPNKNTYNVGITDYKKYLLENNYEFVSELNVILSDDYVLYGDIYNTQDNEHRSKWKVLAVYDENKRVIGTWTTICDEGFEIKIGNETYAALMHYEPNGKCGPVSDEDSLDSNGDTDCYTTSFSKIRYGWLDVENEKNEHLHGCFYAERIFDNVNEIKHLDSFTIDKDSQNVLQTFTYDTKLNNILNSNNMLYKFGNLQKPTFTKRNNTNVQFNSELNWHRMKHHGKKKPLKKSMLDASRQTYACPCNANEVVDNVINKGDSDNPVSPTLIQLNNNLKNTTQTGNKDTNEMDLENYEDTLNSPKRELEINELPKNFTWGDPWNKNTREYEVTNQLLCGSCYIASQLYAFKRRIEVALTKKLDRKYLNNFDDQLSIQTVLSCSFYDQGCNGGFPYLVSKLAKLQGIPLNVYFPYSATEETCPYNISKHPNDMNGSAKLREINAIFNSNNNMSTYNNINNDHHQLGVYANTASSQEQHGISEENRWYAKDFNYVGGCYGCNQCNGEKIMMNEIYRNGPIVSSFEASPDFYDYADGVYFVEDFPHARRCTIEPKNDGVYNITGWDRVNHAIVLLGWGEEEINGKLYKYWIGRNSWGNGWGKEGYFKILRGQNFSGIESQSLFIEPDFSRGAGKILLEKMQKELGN
Turning to `CN(C)/C=N/C(=O)/C(C#N)=C1\CCc2ccccc2N1`, the “% Inhibition @ 10 uM” value is on record as 3.88%. The figure for `CCc1c(O)nc(SCC(=O)N(CC)CC)n(-c2ccccc2)c1=O` is 4.22%; for `COc1cccc(NC(=O)c2ccc3c(c2)C(=O)N(CC2CCCO2)C3=O)c1` (centres unmarked) it is -9.07%; for `O=C(NCc1cccnc1)C1CCC(=O)N1CCc1ccccc1` (centres unmarked) it is 4.81%. In the case of `Cc1ccc(CCNC(=O)c2cc3c(s2)CS(=O)(=O)C3)cc1` it was -9.48%; in that of `Cc1ccc(S(=O)(=O)Nc2ccccc2C(=O)NCC(C)C)cc1`, -2.32%.

As to `O=C1/C(=C/c2ccc(O)c(O)c2)Oc2ccccc21`, the “% Inhibition @ 10 uM” value is recorded as -2.8%. The figure for `COc1ccccc1CNc1ncnc2onc(C)c12` is -4.78%.

`CC1CCCC(C)N1CC(O)COCc1ccccc1` (centres unmarked): the “% Inhibition @ 10 uM” value is on record as -7.39%. The figure for `O=C(O)c1cn(-c2ccc(N3CCCC3)c(F)c2)c2c(F)c(N3CCOCC3)c(F)cc2c1=O` is -1.04%. As to `Cc1ccc2c(=O)cc(C(=O)Nc3nnc(C(C)C)s3)oc2c1C`, the “% Inhibition @ 10 uM” value came to 0.248%. The figure for `COc1ccc(-c2nc3s/c(=C\C=C\c4ccccc4)c(=O)n3n2)cc1` is -3.06%; for `CCC(C(=O)n1nnc2ccccc21)c1ccccc1` (centres unmarked) it is -3.04%.

On to `Cc1ccc(Nc2nc(-c3ccc(Cl)cc3)cs2)cc1C`, for which the “% Inhibition @ 10 uM” value was found to be 0.986%. On to `COc1cc(C2C3=C(O)CCCC3=NC(C)=C2C(=O)Nc2ccccn2)ccc1OCc1ccccc1` (centres unmarked), for which the “% Inhibition @ 10 uM” value stood at 0.983%. As to `O=C(O)c1cccc([N+](=O)[O-])c1C(=O)Nc1ccc([N+](=O)[O-])cc1`, the “% Inhibition @ 10 uM” value was -2.62%.

For the compound `Cc1cc(O)n2nc(NC(=O)c3ccccc3)nc2n1`, the “% Inhibition @ 10 uM” value is on record as 0.401%. On to `Cn1c(SCC(=O)N(CCO)CCO)nc2ccccc2c1=O`, for which the “% Inhibition @ 10 uM” value is given as 4.84%. In the case of `Sc1nn2nnnc2c2ccccc12` it was 6.07%. The figure for `CCCCNC(=O)NC(C(F)(F)F)C(F)(F)F` is 0.986%; for `Cc1cccc(NC(=O)c2ccc(C(=O)c3ccccc3)o2)c1` it is 2.09%. The figure for `O=c1/c(=C/c2ccccc2Cl)sc2ncnn12` is 3.54%; for `CCc1ccccc1NC(=O)c1ccccc1C` it is 7.64%. Regarding `CC(C)Oc1ccccc1C1C2=C(O)CC(C)(C)CC2=NC2=C1C(=O)CC(C)(C)C2` (centres unmarked), the “% Inhibition @ 10 uM” value is -6.36%.

For `CCOc1ccc(-c2csc(/C(C#N)=C/c3ccccc3F)n2)cc1`, the “% Inhibition @ 10 uM” value was 0.135%. In the case of `O=C1c2ccccc2C(=O)N1Cc1ccccc1Cl` it was -1.03%. The figure for `Cc1nc(-c2ccccc2)cn2c1nc1ccccc12` is 2.09%. In the case of `Cc1c(Cl)cccc1NS(=O)(=O)c1cc(Cl)ccc1Cl`, the “% Inhibition @ 10 uM” value is listed as -0.856%. In the case of `C=CCn1c(SCC(=O)N2CCOCC2)nc2sc(C)c(C)c2c1=O` it was -2.53%; in that of `O=C(CCCn1c2ccccc2c2cnnc(O)c21)NCC1CCCO1` (centres unmarked), -2%; in that of `CN(C(=O)CSc1c2c(nc3ccccc13)CCC2)C1CCCCC1`, -11.3%. In the case of `CC1CCN(C(=O)CSc2nc3c(c(=O)n2CCc2ccccc2)SC(C)C3)CC1` (centres unmarked) it was 1.39%; in that of `O=C(c1cc(-c2ccc(Cl)c(Cl)c2)nc2ccccc12)N1CCOCC1`, 0.381%; in that of `COc1cc(OC)c(CN2CCC(O)CC2)cc1Br`, -6.47%. In the case of `COc1ccc(C(=O)N2CCN(Cc3ccc(Br)cc3)CC2)cc1OC` it was -4.26%; in that of `O=C(NCC1CCCO1)C(=O)NC1CC1` (centres unmarked), -1.17%; in that of `COc1cc(OC)c(OC)cc1CN1CCN(Cc2ccc(Cl)cc2)CC1`, 0.873%. For `N#Cc1cccc(NC(=O)COc2ccccc2)c1`, the “% Inhibition @ 10 uM” value was -0.992%. In the case of `Cn1cc(/C=C2\C(=O)NC(=O)N(c3ccc(Cl)cc3)C2=O)c2ccccc21` it was 3.82%; in that of `COCCN1Cc2cccc(C(=O)N3CCN(C4CCCCC4)CC3)c2C1=O`, 2.9%. In the case of `C=CCn1c(SCc2ccc(C(=O)OC)cc2)nc2sc(C)c(C)c2c1=O` it was 1.39%. As to `CCCCCC(=O)Nc1ccc(CC#N)cc1`, the “% Inhibition @ 10 uM” value was -1.61%. Regarding `Cc1ccc(NC(=O)c2c(O)nc3ccccc3c2O)c(C)c1`, the “% Inhibition @ 10 uM” value is given as -11.4%. As for `N#CC(C(=O)NC1CCCCC1)=C1CCCCC1`, the “% Inhibition @ 10 uM” value was -2.8%. In the case of `O=C1CC(NCCc2ccc(Cl)cc2)C(=O)N1c1ccc(F)cc1` (centres unmarked), the “% Inhibition @ 10 uM” value is given as -2.83%.

As for `O=S(=O)(c1ccc(-n2cccn2)cc1)N1CCn2c1nc1ccccc12`, the “% Inhibition @ 10 uM” value amounted to 3.54%. Take `CC(C)C[C@H](NC(=O)c1cccc(-c2cc(Cl)cc(Cl)c2)c1)C(=O)NCC#N`: the “% Inhibition @ 10 uM” value is -3.69%. In the case of `COc1ccc2cc(C(=O)O)c(=O)oc2c1` it was -4.01%; in that of `Cc1c2cnn(CC(=O)NCC(C)c3ccccc3)c(=O)c2c(C)n1Cc1ccc(F)cc1` (centres unmarked), -0.447%; in that of `CC1=CC(C)=Nc2cc(C)ccc2N1`, 2.13%. In the case of `Nc1nc(S)ncc1S(=O)(=O)c1ccccc1` it was 49.3%. The figure for `COc1ccc(-c2nc3c(c(SC)n2)Cc2cccc(OC)c2O3)cc1` is -1.21%. Consider `COc1ccc(Br)cc1/C=c1\sc2nc(=O)c(-c3ccccc3)nn2c1=O`, for which the “% Inhibition @ 10 uM” value was -1.75%. The figure for `COc1ccccc1/C=C/C=C1\N=C(c2cc(Cl)ccc2OC)OC1=O` is -0.48%; for `Cc1nc(O)nc(O)c1S(=O)(=O)N1CCCCC1C` (centres unmarked) it is 2.07%; for `C=CCN1C(=O)N/C(=C/c2ccccc2F)C1=O` it is -1.24%. In the case of `CC1=C(CCN2CCN(c3ccccc3F)CC2)C(C)(C)CCC1` it was 0.0792%; in that of `Cc1ccc(NC(=O)CSc2nccn2C)cc1C`, 1.8%; in that of `NCCc1c[nH]c2c(Cl)cc(Cl)cc12`, -5.46%. The figure for `O=C(O)C1CCCN1C(=O)c1cccnc1` (centres unmarked) is -2.91%; for `CC(C)c1ccc(C(C)(C)C)cc1S(N)(=O)=O` it is -3.16%; for `CCCCCCN1C=CC(=C2C(=O)c3ccccc3C2=O)C=C1` it is 4.16%. With `COC(=O)c1nnn(-c2nonc2N)c1CSC1=NCCS1`, the “% Inhibition @ 10 uM” value is recorded as 10.6%.

`NS(=O)(=O)c1ccc(CNC(=O)c2cc(=O)c3ccccc3o2)cc1`: the “% Inhibition @ 10 uM” value came to 3.51%. The figure for `Cc1cccc(CN2CCN(c3ccccc3)CC2)c1` is -1.92%. Take `Brc1ccc(CSc2c[nH]c3ccccc23)cc1`: the “% Inhibition @ 10 uM” value turned out to be 12.1%. The figure for `CC(=O)NS(=O)(=O)c1ccc(NC(=O)COc2ccc(Cl)cc2C)cc1` is -3.33%; for `Fc1ccc(N2CCN(Cc3c4ccccc4c(Cl)c4ccccc34)CC2)cc1` it is -1.64%.
